Source: patent US5512549A, “Glucagon-like insulinotropic peptide analogs, compositions, and methods of use” (Eli Lilly and Company, priority 1994, dated 1996)
At least one peptide structure holds a part that was inferred or is arguable (an end, a ring closure or a residue). Where a SMILES comes first, the peptide text is derived from it. The star is where a group is joined. Desaminohistidyl = O=C(CCc1c[nH]cn1)*; Octanoyl = CCCCCCCC(=O)*

Legend:
[1] = system: beagles; assay: Dog I.V. Hyperglycemic (150 mg/dl) Clamp Test; assay type: in vivo; conditions: for GIR Change AUC / Insulin Change AUC: 0-60 min; for GIR Change AUC / Insulin Change AUC / Max Insulin Change: mean ± SEM; for Max Insulin Change: 120 minute test period; for Duration of Insulin Effect: time average insulin change consistently ≥0.5 ng/ml
Procedure: (§1) a) Hyperglycemic Clamp Studies
(§2) Experiments were conducted in overnight-fasted, conscious, adult (1-2 years of age) male and female beagles weighing 8-15 kg. At least ten days prior to the study, animals were anesthetized with isoflurane, and a cut-down was made in the left or right inguinal region. Silastic catheters were inserted into the femoral artery and the proximal caudal femoral vein and secured with 4-0 silk suture. The free ends of the catheters were passed subcutaneously to the back using a trocar needle. The catheters were then filled with a glycerol/heparin solution (3:1, v/v; final heparin concentration of 250 KIU/ml), and the free ends were knotted and placed in a subcutaneous pocket to allow complete closure of the skin. Keflex® was administered both pre-operatively (20 mg/kg, IV and 20 mg/kg, I.M.) and post-operatively (250 mg, p.o. once daily for seven days) to prevent infections. Torbugesic (1.5 mg/kg, I.M.) was administered post-operativelyto control pain.
(§3) Blood was drawn just prior to the study day to determine the health of the animal. Only animals with hematocrits above 38% and leukocyte counts below 16,000/mm^3 were used.
(§4) The afternoon before the experiment, the free ends of the catheters were exteriorized from the subcutaneous pocket through a small incision made under local anesthesia (2% lidocaine), and the dog was fitted with a tether system jacket and collar assembly.
The morning of the experiment, the contents of the catheters were aspirated, the catheters were flushed with saline, and extension lines (protected by a stainless steel tether) were attached to the catheters. On mornings of IV injection experiments, an over-the-needle, teflon catheter was inserted percutaneously into a cephalic vein in preparation for the administration of an IV bolus of test substance. The dog was placed in a metabolic cage, and the catheter extension lines and tether were attached to a swivel system to allow the dog to move freely about the cage. At this time (-60 minutes), an exogenous infusion of glucose (50% w/v in water) was begun through the chronic venous catheter. Glucose was infused in a descending stepwise fashion over the first six minutes of the study to rapidly raise the plasma glucose concentration to 150 mg/dl. Plasma glucose concentrations were determined every 2.5 to 7.5 minutes throughout the remainder of the study, and the glucose infusion rate was adjusted appropriately to maintain the plasma glucose concentration at 150 mg/dl.
Sixty minutes after the start of the glucose infusion (time 0), test substance was administered either intravenously (1.0, 2.9, 5.0 or 10.0 μg/kg; dose dissolved in 2 ml of saline containing 0.3% dog albumin, w/v) through the previously inserted teflon catheter or subcutaneously (10 μg/kg; 150 μM in phosphate buffered saline) in the dorsal aspect of the neck.
Arterial blood samples (3.5 ml) were taken at -30, -15, 0, 2.5, 5, 7.5, 10, 12.5, 15, 20, 30, 45, 60, 75, 90, 105 and 120 minutes during the IV studies and at -30, -15, 0, 3, 6, 9, 12, 15, 20, 30, 45, 60, 75, 90, 105 and 120 minutes during the SC studies. Samples were collected in vacuum blood collection tubes containing disodium EDTA and immediately placed on ice. To prevent proteolytic cleavage of GLP-1(7-37) in the plasma samples, 1.5 ml of the EDTA containing blood were transferred to a polypropylene tube containing 40 μl of aprotinin (10,000 KIU/ml) and mixed well. The samples were centrifuged, and the resulting plasma was transferred to polypropylene test tubes and stored on ice for the duration of the study.
At the conclusion of the experiment, the animal was anesthetized (isoflurane); the catheters were flushed with fresh saline and filled with the glycerol/heparin mixture; the free ends of the catheters were knotted and placed subcutaneously as described earlier; and antibiotic was administered (300 mg Keflex®, I.M.). […]

[2] = system: beagles; assay: Dog S.C. Hyperglycemic (150 mg/dl) Clamp Test; assay type: in vivo; conditions: S.C. 10 μg/kg
Procedure: as §1, §2, §3, §4
The morning of the experiment, the contents of the catheters were aspirated, the catheters were flushed with saline, and extension lines (protected by a stainless steel tether) were attached to the catheters. On mornings of IV injection experiments, an over-the-needle, teflon catheter was inserted percutaneously into a cephalic vein in preparation for the administration of an IV bolus of test substance. The dog was placed in a metabolic cage, and the catheter extension lines and tether were attached to a swivel system to allow the dog to move freely about the cage. At this time (-60 minutes), an exogenous infusion of glucose (50% w/v in water) was begun through the chronic venous catheter. Glucose was infused in a descending stepwise fashion over the first six minutes of the study to rapidly raise the plasma glucose concentration to 150 mg/dl. Plasma glucose concentrations were determined every 2.5 to 7.5 minutes throughout the remainder of the study, and the glucose infusion rate was adjusted appropriately to maintain the plasma glucose concentration at 150 mg/dl. […]

CCCCCCCC(=O)NCCCC[C@H](NC(=O)[C@@H](NC(=O)[C@H](CC(C)C)NC(=O)[C@H](Cc1c[nH]c2ccccc12)NC(=O)[C@H](C)NC(=O)[C@@H](NC(=O)[C@H](Cc1ccccc1)NC(=O)[C@H](CCC(=O)O)NC(=O)[C@H](CCCNC(=N)N)NC(=O)[C@H](C)NC(=O)[C@H](C)NC(=O)[C@H](CCC(N)=O)NC(=O)CNC(=O)[C@H](CCC(=O)O)NC(=O)[C@H](CC(C)C)NC(=O)[C@H](Cc1ccc(O)cc1)NC(=O)[C@H](CO)NC(=O)[C@H](CO)NC(=O)[C@@H](NC(=O)[C@H](CC(=O)O)NC(=O)[C@H](CO)NC(=O)[C@@H](NC(=O)[C@H](Cc1ccccc1)NC(=O)[C@@H](NC(=O)CNC(=O)[C@H](CCC(=O)O)NC(=O)[C@H](C)NC(=O)CCc1c[nH]cn1)[C@@H](C)O)[C@@H](C)O)C(C)C)[C@@H](C)CC)C(C)C)C(=O)NCC(=O)N[C@@H](CCCNC(=N)N)C(=O)NCC(=O)O [N-Imidazopropionyl (Ara26 (N^ε -Octanoyl (lysyl134)))GLP-1(8-37))OH] (Desaminohistidyl-AEGTFTSDVSSYLEGQAAREFIAWLVK(Octanoyl)GRG-OH)
GIR Change AUC ([1]; I.V. 1.0 μg/kg): 350 ± 93 mg/kg
Insulin Change AUC ([1]; I.V. 1.0 μg/kg): 90 ± 40 ng·min/mL
Max Insulin Change ([1]; I.V. 1.0 μg/kg): 2.3 ± 0.8 ng/mL
Duration of Insulin Effect ([1]; I.V. 1.0 μg/kg): 42.5 min
GIR Change AUC ([1]; I.V. 5.0 μg/kg): 568 ± 126 mg/kg
Insulin Change AUC ([1]; I.V. 5.0 μg/kg): 132 ± 7 ng·min/mL
Max Insulin Change ([1]; I.V. 5.0 μg/kg): 3.8 ± 0.2 ng/mL
Duration of Insulin Effect ([1]; I.V. 5.0 μg/kg): 72.5 min
GIR Change AUC ([2]; 0-120 min, mean ± SEM): 926 ± 268 mg/kg
Insulin Change AUC ([2]; 0-120 min, mean ± SEM): 113 ± 24 ng·min/mL
Max Insulin Change ([2]; 120 minute test period, mean ± SEM): 2.0 ± 0.4 ng/mL
Duration of Insulin Effect ([2]; time average insulin change consistently >0.5 ng/ml): > 90 min
